# Data reported in PubChem BioAssay AID504339 (National Center for Advancing Translational Sciences (NCATS), 2011).
# The campaign covered roughly 390,000 compounds. About 17,000 (4.4%) were called active. Inconclusive means that the source gave no clear call. Such entries were picked first, then a sample of the others. Calls come from the whole dose curve; as a rule, active = well fitted inhibition curve with a large enough effect; inconclusive = small, poorly fitted or top-dose-only effect; inactive = no such curve, though single readings can be large or run the other way. A potency beside an inconclusive call is a rough fit, not a confirmed value.
# Molecular target: Lysine-specific demethylase 4A (Homo sapiens) (UniProt O75164)
# Chain of UniProt O75164 (O75164 whole entry, looked up, the tested form may be a part): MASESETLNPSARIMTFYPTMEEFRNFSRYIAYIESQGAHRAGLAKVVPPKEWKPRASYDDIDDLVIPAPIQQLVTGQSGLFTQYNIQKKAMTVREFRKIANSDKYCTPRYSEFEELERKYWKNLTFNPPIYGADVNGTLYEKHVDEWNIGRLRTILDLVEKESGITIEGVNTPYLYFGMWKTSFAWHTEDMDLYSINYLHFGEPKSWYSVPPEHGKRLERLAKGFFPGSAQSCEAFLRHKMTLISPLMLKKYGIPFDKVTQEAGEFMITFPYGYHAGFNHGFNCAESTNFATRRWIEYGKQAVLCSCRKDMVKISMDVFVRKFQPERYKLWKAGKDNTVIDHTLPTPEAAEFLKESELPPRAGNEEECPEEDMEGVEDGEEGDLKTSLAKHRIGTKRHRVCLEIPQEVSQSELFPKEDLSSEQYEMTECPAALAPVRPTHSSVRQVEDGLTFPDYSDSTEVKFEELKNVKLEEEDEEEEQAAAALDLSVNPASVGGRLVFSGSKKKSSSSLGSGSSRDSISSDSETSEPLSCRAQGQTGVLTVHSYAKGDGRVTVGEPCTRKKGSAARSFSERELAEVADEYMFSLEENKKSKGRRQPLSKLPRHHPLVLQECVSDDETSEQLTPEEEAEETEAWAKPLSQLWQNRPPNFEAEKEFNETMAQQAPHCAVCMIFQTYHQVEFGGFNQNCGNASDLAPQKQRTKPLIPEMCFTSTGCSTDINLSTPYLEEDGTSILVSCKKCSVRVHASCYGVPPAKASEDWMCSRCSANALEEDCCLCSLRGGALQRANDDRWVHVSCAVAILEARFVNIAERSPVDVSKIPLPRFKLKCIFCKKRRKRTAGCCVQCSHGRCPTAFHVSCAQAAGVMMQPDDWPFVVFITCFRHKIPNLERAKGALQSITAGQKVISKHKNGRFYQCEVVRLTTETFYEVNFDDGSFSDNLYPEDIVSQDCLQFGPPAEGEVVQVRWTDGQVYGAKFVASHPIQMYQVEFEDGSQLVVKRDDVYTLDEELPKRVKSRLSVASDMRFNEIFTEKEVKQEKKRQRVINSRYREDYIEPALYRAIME
# Test: qHTS Assay for Inhibitors of JMJD2A-Tudor Domain; note: nearly all actives have a fitted effect of over 50% in size
# Conditions: AlphaScreen JMJD2A-Tudor / H3K4me3 peptide binding; activity change, negative = inhibition: at 114 µM (top of the series)
# % is set by controls: 0 for no effect and ±100 for the full control effect; potency is the fitted concentration of half-maximal effect; tags give direction and shape of the fitted curve.
Compound,Potency,"activity change, negative = inhibition"
CC1Cc2ccccc2N1CC(=O)Nc1ccc(N2CCOCC2)cc1 (configuration not stated),"inconclusive: 56.2 µM [inhibitor, partial curve]",–
O=C(c1ccc(Cl)cc1)c1c[nH]c(C(=O)C(Cl)(Cl)Cl)c1,"inconclusive: 56.2 µM [inhibitor, partial curve]",–
COc1ccc2sc(-c3ccccc3OC)c(-c3ccc(OCCN4CCCC4)cc3)c2c1,"inconclusive: 44.7 µM [inhibitor, partial curve]",–
COc1ccc(OCCn2c(N)nc3ccccc32)cc1,"inconclusive: 89.1 µM [inhibitor, partial curve, poor fit]",–
COc1ccc(Cl)cc1NC(=S)N(CCN1CCOCC1)C1CCN(C(C)=O)CC1,"inconclusive: 3.16 µM [inhibitor, partial curve, poor fit]",–
Cn1nnc2cc(NC(=O)N3CCN(c4ccccn4)CC3)ccc21,–,inactive: -4.29%
O=C1C=C(c2ccccc2)C[C@H](c2cccs2)[C@H]1n1nnc([N+](=O)[O-])n1,"inconclusive: 35.5 µM [inhibitor, single point]",–
Cc1cccc(OCc2n[nH]c(=S)o2)c1,"inconclusive: 31.6 µM [inhibitor, partial curve]",–
O=C(CC1C[C@H](C(=O)N2CCCCC2)[C@@]2(CCc3ccccc3)c3[nH]c4ccccc4c3CCN2C1=O)NCCCn1ccnc1 (some centres not stated),"inconclusive: 50.1 µM [inhibitor, partial curve]",–
CC(=O)N1CCN(C2=NC(=O)/C(=C/c3ccc(OS(=O)(=O)c4ccccc4)cc3)S2)CC1,"inconclusive: 63.1 µM [inhibitor, partial curve, poor fit]",–
Cc1cccc(N2CCN(S(=O)(=O)c3ccc4c(c3)C(C)(C)C(=O)N4C)CC2)c1C,"inconclusive: 63.1 µM [inhibitor, partial curve]",–
O=C(NC1CCCCCC1)C1CCN(S(=O)(=O)c2ccccc2)CC1,–,inactive: -4.05%
Cc1cc(NC(=O)c2cc(-c3cccnc3)nc3c(C)c(C)ccc23)no1,"inconclusive: 79.4 µM [inhibitor, partial curve]",–
CCOC(=O)C1=C(N)Oc2ccc3ccccc3c2C1c1cccnc1 (configuration not stated),"inconclusive: 56.2 µM [inhibitor, partial curve]",–
COc1ccccc1NS(=O)(=O)c1ccc(N/N=C/C=C/c2ccccc2[N+](=O)[O-])c([N+](=O)[O-])c1,"inconclusive: 0.794 µM [inhibitor, full curve]",–
NC(=O)C1CCCN(CCc2ccccc2)C1 (configuration not stated),–,inactive: -17.2%
CCOC(=O)c1[nH]c(C)c(C(=O)N2CCc3c([nH]c4ccccc34)C2c2ccccn2)c1C (configuration not stated),"inconclusive: 50.1 µM [inhibitor, partial curve]",–
